According to patent publication US20100003244A1 (TRIGEN, published 2010):

Biological target: T1, collagen (type I bovine; BD Bioscience) (bovine, UniProt P02453 162-1217; P02465 80-1117)
T1 construct: Legends that say only immobilized collagen or collagen type 1 for these ELISAs are tied to this molecule; also called immobilized collagen; bovine type I collagen
Experiment: ELISA on plates coated with bovine collagen I, detection with peroxidase-labelled secondary antibody against the Fc part

UniProt P02453, sequence (P02453 162-1217, chain 1 of 2): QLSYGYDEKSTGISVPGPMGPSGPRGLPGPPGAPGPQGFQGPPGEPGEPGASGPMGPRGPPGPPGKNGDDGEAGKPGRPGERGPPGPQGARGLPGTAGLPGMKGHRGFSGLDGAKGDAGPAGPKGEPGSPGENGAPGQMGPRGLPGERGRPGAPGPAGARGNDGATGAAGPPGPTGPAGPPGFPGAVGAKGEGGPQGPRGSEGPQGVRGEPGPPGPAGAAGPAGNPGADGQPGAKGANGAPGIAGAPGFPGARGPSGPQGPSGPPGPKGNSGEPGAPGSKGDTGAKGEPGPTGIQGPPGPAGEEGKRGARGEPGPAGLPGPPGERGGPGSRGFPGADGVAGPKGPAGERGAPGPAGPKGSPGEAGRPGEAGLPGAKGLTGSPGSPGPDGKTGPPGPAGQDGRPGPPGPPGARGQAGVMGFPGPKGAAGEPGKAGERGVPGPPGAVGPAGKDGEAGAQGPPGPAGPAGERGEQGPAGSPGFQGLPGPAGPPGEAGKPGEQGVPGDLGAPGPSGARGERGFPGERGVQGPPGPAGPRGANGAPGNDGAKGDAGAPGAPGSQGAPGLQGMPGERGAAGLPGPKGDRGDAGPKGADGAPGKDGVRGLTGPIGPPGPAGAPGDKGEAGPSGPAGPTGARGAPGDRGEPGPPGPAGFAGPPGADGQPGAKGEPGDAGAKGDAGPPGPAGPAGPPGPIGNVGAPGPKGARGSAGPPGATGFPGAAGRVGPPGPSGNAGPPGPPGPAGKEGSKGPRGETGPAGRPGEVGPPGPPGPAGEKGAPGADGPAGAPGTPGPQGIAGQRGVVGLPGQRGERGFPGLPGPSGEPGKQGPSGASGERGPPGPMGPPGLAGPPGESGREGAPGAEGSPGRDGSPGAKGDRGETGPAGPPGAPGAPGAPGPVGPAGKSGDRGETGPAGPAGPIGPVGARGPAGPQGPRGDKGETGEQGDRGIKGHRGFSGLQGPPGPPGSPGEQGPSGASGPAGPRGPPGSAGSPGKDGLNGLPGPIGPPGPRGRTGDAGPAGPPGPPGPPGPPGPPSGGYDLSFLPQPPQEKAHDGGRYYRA
UniProt P02453, sequence (P02465 80-1117, chain 2 of 2, further chain): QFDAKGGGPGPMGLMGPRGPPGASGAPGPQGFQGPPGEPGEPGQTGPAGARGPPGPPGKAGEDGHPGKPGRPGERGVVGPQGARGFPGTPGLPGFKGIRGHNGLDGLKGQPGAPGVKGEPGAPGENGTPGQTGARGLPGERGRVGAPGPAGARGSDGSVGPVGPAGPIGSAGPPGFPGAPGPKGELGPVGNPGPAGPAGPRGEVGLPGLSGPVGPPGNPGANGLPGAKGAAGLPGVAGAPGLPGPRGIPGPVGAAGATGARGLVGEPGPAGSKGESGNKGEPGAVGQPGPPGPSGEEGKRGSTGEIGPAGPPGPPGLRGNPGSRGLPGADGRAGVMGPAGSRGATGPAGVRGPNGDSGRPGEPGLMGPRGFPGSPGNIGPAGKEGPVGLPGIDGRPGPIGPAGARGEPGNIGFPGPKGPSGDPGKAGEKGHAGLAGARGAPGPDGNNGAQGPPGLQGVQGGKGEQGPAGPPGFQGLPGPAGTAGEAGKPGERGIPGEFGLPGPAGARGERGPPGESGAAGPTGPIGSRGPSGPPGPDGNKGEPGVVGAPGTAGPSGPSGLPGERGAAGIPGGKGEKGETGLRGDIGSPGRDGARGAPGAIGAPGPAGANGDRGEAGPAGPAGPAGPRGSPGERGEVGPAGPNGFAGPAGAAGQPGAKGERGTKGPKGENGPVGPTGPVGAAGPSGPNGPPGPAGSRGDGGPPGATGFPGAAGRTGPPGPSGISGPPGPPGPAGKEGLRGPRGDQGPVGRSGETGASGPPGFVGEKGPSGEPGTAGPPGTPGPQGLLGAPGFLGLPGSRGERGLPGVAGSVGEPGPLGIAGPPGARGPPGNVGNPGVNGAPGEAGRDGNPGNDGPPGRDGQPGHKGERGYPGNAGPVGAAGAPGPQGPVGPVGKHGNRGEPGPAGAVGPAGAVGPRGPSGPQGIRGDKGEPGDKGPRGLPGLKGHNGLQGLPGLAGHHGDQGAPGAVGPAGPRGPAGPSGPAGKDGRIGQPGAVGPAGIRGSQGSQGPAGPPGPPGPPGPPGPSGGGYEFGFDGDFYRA

B1: Fc-GPVI-nt (Fc fusion)
chain: QSGPLPKPSLQALPSSLVPLEKPVTLRCQGPPGVDLYRLEKLSSSRYQDQAVLFIPAMKRSLAGRYRCSYQNGSLWSLPSDQLELVATGVFAKPSLSAQPGPAVSSGGDVTLQCQTRYGFDQFALYKEGDPAPYKNPERWYRASFPIITVTAAHSGTYRCYSFSSRDPYLWSAPSDPLELVVTGTSVTPSRLPTEPPSSVAEFSEATAELTVSFTNKVFTTETSRSITTSPKESDSPAGPARQYYTKGNGGR[gap - human IgG1 Fc and a few adjoining residues]
notes: The entry starts with the GPVI leader; Disulfide-linked dimer of about 160 kDa; made in HeLa cells (adenovirus) or CHO cells; also called GPVI-Fc; GPVI-Fc-dimer
EC50 (read off the curve): ~1 µg/well
